Data on 82 compounds can be found in ChEMBL document CHEMBL1201862, “PubChem BioAssay data set” (2004).

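Values below derive from 48-hour exposures of cells grown in 96-well plates, with endpoints linearly interpolated between the two concentrations bracketing the appropriate inhibition level. The concentration for 50% growth inhibition is given as GI50.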 The source made the active and inactive calls. Rule as the data show it: active = GI50 up to about 1.1 µM and inactive = higher. Some results are limits rather than exact numbers.

This experiment deals with NCI-H322M. Nature of the experiment: inhibition of tumour cell growth, NCI panel, 48 h.
For the compound `Nc1nc(N)c2c(Cl)c(CNc3ccc(C(=O)NC(CC(=O)O)C(=O)O)cc3)ccc2n1` (configuration not stated), the GI50 was active: < 0.01 µM.
In the case of `CC(=O)OC1COC(Nn2c(=O)[nH]c3ccccc3c2=O)C(OC(C)=O)C1OC(C)=O` (configuration not stated), the GI50 was inactive: > 100 µM.
The same measure for `COC(=O)[C@@H]1CO[C@H](C(C)(C)C)N1C(=O)N1C=CC(=O)C[C@H]1C`: inactive: > 100 µM.
The same measure for `CCCOc1nc(N)c2cnn(C3CCCCO3)c2n1` (configuration not stated): inactive: > 100 µM; for `CC(C)(C)C(=O)OCC1C(=O)OCC1C(=O)N1Cc2cc3ccccc3nc2C1` (configuration not stated): inactive: 17.8 µM.
For the compound `COc1ccc(C(O)CNC(=O)c2ccccc2)cc1` (configuration not stated), the GI50 is inactive: > 100 µM.
The same measure for `CC1CC[C@@]2(OC1)OC1C[C@H]3[C@@H]4CC=C5CC(OC6OC(CO)C(OC7OC(CO)C(O)C(OC8OCC(O)C(O)C8O)C7OC7OC(CO)C(O)C(O)C7O)C(O)C6O)CCC5(C)[C@H]4CCC3(C)C1[C@@H]2C` (some centres not stated): inactive: 4.81 µM.
As for `O=C(O)C1CC2C=CCC(C2)C1` (configuration not stated), the figure is inactive: > 100 µM; as for `O=C(CN1CCN(Cc2ccccc2)CC1)c1ccc2[nH]c(=O)oc2c1`, inactive: > 100 µM; as for `O=C(O)c1ccccc1/C=N\N(CCO)C1=NCCN1`, inactive: > 100 µM.
The same measure for `COC1=CC(=O)c2ccccc2C1(CCC=C(C)C)C1=NC(C)(C)CO1` (configuration not stated): inactive: > 100 µM.
For `c1ccc(C2=NNC3c4ccccc4-c4ccccc4N3C2)cc1` (configuration not stated), the GI50 was inactive: 45.6 µM.
The same measure for `C[C@]12CC[C@H]3[C@@H](CCC4=CC(=O)CC[C@@H]43)[C@@H]1CC[C@@H]2OC1(O)C(=O)c2ccccc2C1=O`: inactive: 77.1 µM.
Turning to `CCOC(=O)CC(NC(=O)c1ccc(/N=N/N(C)C)cc1)C(=O)OCC` (configuration not stated), the GI50 was inactive: > 100 µM.
As for `Cc1cc(=O)n2nc(CSc3nnc(S)s3)sc2n1`, the figure is inactive: > 100 µM.
Regarding `C=CCN1C(=O)/C(=C/c2ccc(OC)cc2)NC1=S`, the GI50 was inactive: 78.2 µM.
Consider `O=CN1CCC23CC(O)CCC2C1Cc1cc(Oc2nnnn2-c2ccccc2)cc(O)c13` (configuration not stated), for which the GI50 was inactive: > 100 µM.
As for `Nc1nc(=O)[nH][nH]1`, the GI50 is inactive: > 100 µM.
As for `O=C1Nc2ccc(S(=O)(=O)O)cc2/C1=C1/Nc2ccc(Br)cc2C1=O`, the figure is inactive: > 100 µM; as for `Brc1cc(CCOC2CCCCO2)c(-c2sccc2CCOC2CCCCO2)s1` (configuration not stated), inactive: > 57.9 µM.
As for `Cc1n[nH]c(=O)n1-c1cccnc1`, the figure is inactive: > 100 µM; as for `C=C(CO[Si](C)(C)C(C)(C)C)C(C)=O`, inactive: > 84.5 µM.
The same measure for `CC1(C)OP(=O)(c2ccccc2)C=C1Sc1ccc([N+](=O)[O-])cc1[N+](=O)[O-]` (configuration not stated): inactive: > 100 µM.
Turning to `CC1CCCN1CCCOC(=O)c1ccc(OC2C=CCCC2)cc1` (configuration not stated), the GI50 is inactive: 50.1 µM.
The same measure for `CC1(C)C(N2CCOCC2)CS1(=O)=O` (configuration not stated): inactive: > 10 µM; for `Cc1cccc2c(N)c3cccc(C(=O)NCCN4CCOCC4)c3nc12`: active: 0.439 µM; for `COc1cc2c(cc1OC)C1=C(C=O)c3ccc(OC)c(OC)c3C(O)N1CC2` (configuration not stated): inactive: 27.5 µM.
`C[Si](C)(N[Si](C)(C)OCCc1ccccc1)OCCc1ccccc1`: the GI50 was inactive: > 100 µM.
As for `C=CC(Cl)(CBr)CCC(Br)C(C)(C)Cl` (configuration not stated), the figure is inactive: 22.4 µM; as for `COc1ccc(-c2c(-c3ccccc3)c(C)nc3[nH]c(=S)[nH]c(=S)c23)cc1OC`, inactive: 14.2 µM; as for `COc1ccc(CCNC(=O)CCc2ccccc2CO)cc1OC`, inactive: > 100 µM.
The same measure for `Cc1c(C#N)c(N)[nH]c(=S)c1C#N`: inactive: > 100 µM.
The same measure for `Cc1c2[nH]c3ccc(Br)cc3c2c(C)c2nccc(O)c12`: inactive: 15.7 µM; for `Cn1c(=O)sc2cc(C(=S)N3CCOCC3)ccc21`: inactive: > 100 µM; for `COC(c1ccc(C(C)(C)C)cc1)(c1ccc(C(C)(C)C)cc1)c1cc(C(O)(c2cc(C(OC)(c3ccc(C(C)(C)C)cc3)c3ccc(C(C)(C)C)cc3)c(C)cc2C)c2cc(C(OC)(c3ccc(C(C)(C)C)cc3)c3ccc(C(C)(C)C)cc3)c(C)cc2C)c(C)cc1C`: inactive: > 100 µM.
Regarding `CCOC(=O)C1S/C(=N\C(=N)N[N+](=O)[O-])N=C1C` (configuration not stated), the GI50 was inactive: > 100 µM.
Consider `CC(=O)C(=O)NC1/C=C(C)\C=C/C(O)C/C=C(C)\C=C/C(O)CC2OC(=O)C1(C)C(=O)C2C` (configuration not stated), for which the GI50 is inactive: > 100 µM.
The same measure for `N#CCCN(CCC#N)c1ccc(C(=N/c2ccc(Cl)cc2)/N=N/c2ccc(Cl)cc2)cc1`: inactive: 24.1 µM.
`Cc1nnc(Nc2ccc(Cl)cc2)o1`: the GI50 was inactive: 8.81 µM.
The same measure for `COC(=O)[C@H]1N[C@@H](C(=O)OC)C23CCC[C@H]2CC[C@]1(C(OC)OC)C3`: inactive: > 100 µM; for `COC1OC(CS(=O)(=O)O)C(O)C(O)C1O` (configuration not stated): inactive: > 100 µM.
As for `NC1=NC(c2ccccc2)CC(c2cc(Cl)cc(Br)c2O)=N1` (configuration not stated), the figure is inactive: 18.7 µM; as for `Cc1cc(NS(=O)(=O)c2ccc(Nc3c4ccccc4nc4c(C(=O)N5CCN(CCO)CC5)ccc(Cl)c34)cc2)no1`, inactive: > 100 µM.
As to `O=C(C1=C(C(=O)c2ccccc2)SC2(S1)C(C(=O)c1ccccc1)=C(C(=O)c1ccccc1)Sc1c2ssc1=O)c1ccccc1`, the GI50 is inactive: 66.2 µM.
The same measure for `Cc1ccc(/N=N/c2c(C)nn(-c3ccccc3)c2-c2ccccc2)c(Br)c1`: inactive: > 100 µM.
As for `CN1CCC(C(O)(c2ccccc2)c2ccc(Br)cc2)CC1` (configuration not stated), the figure is inactive: 26.7 µM; as for `CC(C)(C)c1ccc(O)c(Br)c1`, inactive: > 100 µM.
The same measure for `COc1cc2ccc(CC(N)=O)cc2cc1OC`: inactive: > 100 µM; for `COc1ccc(C2=C(N)c3c(Cl)cccc3C2=O)cc1`: inactive: > 100 µM.
Regarding `COc1cccc(-c2c(C#N)c(N)nc3c2CCS(=O)(=O)c2ccc(C)cc2-3)c1`, the GI50 was inactive: > 100 µM.
As for `COc1cccc(CCn2c(N)c(-c3cc(Cl)cc(Cl)c3)c3ccc([N+](=O)[O-])cc3c2=O)c1`, the figure is inactive: 3.74 µM; as for `CN1CC(c2ccccc2)C(O)(C2(c3ccccc3)CN(C)CC(c3ccccc3)C2=O)C(c2ccccc2)C1` (configuration not stated), inactive: > 100 µM; as for `N#Cc1c(-c2ccccc2)c(CN2CCCCC2)c(=O)n2c1[nH]c1ccccc12`, inactive: 13.9 µM.
The same measure for `NCC[Se][Se]CCN`: inactive: 3.77 µM; for `N/N=C1/C2CN3CCN(C2)CC1(c1ccc([N+](=O)[O-])cc1)C3`: inactive: > 100 µM.
The same measure for `OC(c1cc2ccccc2[nH]1)C(O)(c1cc2ccccc2[nH]1)c1cc2ccccc2[nH]1` (configuration not stated): inactive: 13.7 µM; for `CCN(CC)c1ccc(C2SCC(=O)N2c2ccc(NC(=O)c3ccc(N4C(=O)CSC4c4ccc(N(CC)CC)cc4)cc3)cc2)cc1` (configuration not stated): inactive: > 100 µM; for `CC(C)(C)[Si](C)(C)O[C@@H](C(=O)OC1C=CCCC1)[C@@H](NC(=O)c1ccccc1)c1ccccc1` (some centres not stated): inactive: 37.3 µM.
`CN(C)CCS/C(=N\c1ccccc1)N1CCCCC1`: the GI50 is inactive: 22.6 µM.
As for `COc1cc2c(cc1OCCCC(=O)Nc1cc(C(=O)Nc3cc(C(=O)Nc4cc(C(=O)NCCCN(C)C)n(C)n4)n(C)n3)n(C)n1)N=CC1CCCN1C2=O` (configuration not stated), the GI50 is inactive: 23.8 µM.
The same measure for `O=C(O)CSc1nnc(/C=C/c2ccccc2)[nH]1`: inactive: > 100 µM.
As for `CC1NCCc2c1[nH]c1cc(O)ccc21` (configuration not stated), the GI50 was inactive: > 100 µM.
The same measure for `CCOC(=O)C1=C(Nc2cccc(OC)c2)OCC1=O`: inactive: > 100 µM.
For the compound `CN(C)c1cccc2c1C(=O)C=CC21CCc2ccc(N(C)C)c3c(N(C)C)ccc1c23` (configuration not stated), the GI50 is inactive: 16.6 µM.
The same measure for `O=C(CCC1C(=O)NC(=S)NC1=O)c1ccc2ccccc2c1`: inactive: > 100 µM; for `O=C(CCc1ccc(O)cc1)NCCc1cccc(OCc2ccccc2)c1`: inactive: 47.1 µM; for `NCCNCc1c2ccccc2c(CNCCN)c2ccccc12`: inactive: 12.7 µM.
As to `O=C1COCCN1C(=O)c1ccccc1Cl`, the GI50 is inactive: > 100 µM.
The same measure for `CC(=O)OCCCC(NC(=O)OC(C)(C)C)C(=O)NC(CCCOC(C)=O)C(=O)NC(Cc1ccc([N+](=O)[O-])cc1)C(=O)NCC(=O)OCc1ccccc1` (configuration not stated): inactive: 20.3 µM.
The same measure for `O=C(CCCN1CCC2(CC1)NC(=O)c1ccccc1O2)c1ccc(F)cc1`: inactive: > 100 µM; for `CCC(C)[C@@H](NCc1ccccc1)[C@H](OCc1ccccc1)[C@@H]1COC(C)(C)O1` (some centres not stated): inactive: 25.4 µM; for `Fc1nc(Sc2ncnc3nc[nH]c23)nc(-c2c3ccccc3c3sc4ccccc4n23)n1`: inactive: > 100 µM.
As for `CCCCCCCCCCCC(=O)OC[C@H](C[As](=O)(O)O)OC(=O)CCCCCCCCCCC`, the figure is inactive: 16.8 µM; as for `C[N+](C)(C)/C=N\c1cccc2c1CCCC2`, inactive: > 100 µM; as for `O=C(CC1(O)C(=O)Nc2c(Cl)cc(Cl)cc21)c1ccc([N+](=O)[O-])cc1` (configuration not stated), inactive: > 74.6 µM.
Regarding `O=C(Cc1nc2ccc([N+](=O)[O-])cc2nc1O)C(=O)Nc1ccccc1[N+](=O)[O-]`, the GI50 was inactive: > 100 µM.
As for `CC(C)N(C)C(=O)C12C3C4C1C1C2C3C41C#N` (configuration not stated), the figure is inactive: > 100 µM.
As for `CNc1ccc([N+](=O)[O-])cc1C(=O)N1CCC[C@H]1CO`, the figure is inactive: > 100 µM.
As for `CC(C)(C)OC(=O)/C=C/C(=O)O/C=C/[N+](=O)[O-]`, the figure is inactive: > 100 µM; as for `C=C1C(=O)C[C@@]23CCC[C@@]12CC(OCOC)C3` (some centres not stated), inactive: 13.2 µM; as for `CC1=NN(C(=O)c2ccc(Cl)cc2)C(=O)/C1=C/c1ccccc1O`, inactive: > 100 µM.
As for `COc1ccc(-c2cc(O)c3c(C)ccnc3n2)cc1`, the GI50 is inactive: 29.9 µM.
